The supplement of paper PMC12340641
Whole data set: some 1,000 compounds, median “relative growth in counter assay (no AraC = 100%, AraC + DMSO = 0%)” near -1.1, cut for the highest 2% near 20. This is one part of the list.

System: HEK293FT dCK*-only
Assay: relative growth in counter assay (no AraC = 100%, AraC + DMSO = 0%); higher = more growth rescue independent of IKZF1
Conditions: compound concentration: 5 uM; AraC concentration: 0.3 uM; overnight pretreatment + 4 days AraC
Description: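 Growth recovery screen of the molecular-glue-like (Specs) library. HEK293FT cells expressing a dCK*-IKZF1 fusion (primary) or dCK* alone (counter) were pretreated overnight with compound at 5 uM, then given 0.3 uM AraC for 4 days. Hoechst nuclei were counted by imaging. Primary: normalised to pomalidomide (100%) and DMSO (0%), mean of 2 replicates. Counter: normalised to no-AraC (100%) and AraC+DMSO (0%), single replicate.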

First: Cc1cc(C)c2[nH]c3nc(SCC(=O)Nc4cccc(Cl)c4C)nnc3c2c1
Second: Cc1ccc2[nH]c3nc(SCC(=O)Nc4cccc(Cl)c4C)nnc3c2c1
The “relative growth in counter assay” value of the first is lower: -20.1% for the first, 1.69% for the second.

Compared with `O=C(Nc1ccc(S(=O)(=O)Nc2ccccn2)cc1)c1cc2ccccc2o1`, `O=C(Nc1ccc(S(=O)(=O)Nc2ccccn2)cc1)c1cccc(Cl)c1` is higher in “relative growth in counter assay” value: -2.82% for the first, -0.42% for the second.

Going from `O=C1CCCC/C1=C/Nc1ccc(S(=O)(=O)Nc2cnc3ccccc3n2)cc1` to `Cc1cc(NS(=O)(=O)c2ccc(NC(=O)c3ccccc3)cc2)nc(C)n1`, the “relative growth in counter assay” value rises from -1.17% to 0.4%.

Going from `Cc1cnc(Nc2cccc(C3CN(C(=O)Cn4c(C(F)(F)F)nc5ccccc54)CCO3)n2)s1` (configuration not stated) to `Cc1cc(C)n(CC(=O)N2CCOC(c3cccc(Nc4ncc(C)s4)n3)C2)c(=O)n1` (configuration not stated), the “relative growth in counter assay” value falls from 8.07% to -3.56%.

Compared with `COc1ccc(C(=O)Nc2ccc(S(=O)(=O)Nc3ccccn3)cc2)cc1`, `Cc1cccc(C(=O)Nc2ccc(S(=O)(=O)Nc3ncccn3)cc2)c1` is lower in “relative growth in counter assay” value: 2.7% for the first, -2.64% for the second.

First: Cc1cc(C)nc(NS(=O)(=O)c2ccc(NC(=O)c3ccc(S(=O)(=O)N(C)C)cc3)cc2)n1
Second: CC(=O)Nc1ccc(S(=O)(=O)Nc2nc(C)cc(C)n2)cc1
The “relative growth in counter assay” value of the first is lower: -6.06% for the first, -0.14% for the second.

First: Cc1cc(NS(=O)(=O)c2ccc(NC(=O)c3cccnc3)cc2)nc(C)n1
Second: Cc1cc(C)nc(NS(=O)(=O)c2ccc(NC(=O)CCl)cc2)n1
The “relative growth in counter assay” value of the first is lower: 4.96% for the first, 23.6% for the second.

Compared with `O=C(CC1C=CCC1)N1CCC(c2cccc(Nc3nccs3)n2)CC1` (configuration not stated), `Cc1cnc(C(=O)N2CCC(c3cccc(Nc4nccs4)n3)CC2)cn1` is higher in “relative growth in counter assay” value: -14.5% for the first, 3.86% for the second.

First: Cc1cnc(Nc2cccc(C3CN(C(=O)C4CCCO4)CCO3)n2)s1 (configuration not stated)
Second: COCC(=O)N[C@H]1CCC[C@H]1C(=O)N1CCOC(c2cccc(Nc3ncc(C)s3)n2)C1 (some centres not stated)
The “relative growth in counter assay” value of the first is lower: -14.9% for the first, -8.62% for the second.

Compared with `Cc1ccnc(NS(=O)(=O)c2ccc(N3C(=O)C4CC=CCC4C3=O)cc2)n1` (configuration not stated), `CCC(C)C(=O)Nc1ccc(S(=O)(=O)Nc2nccc(C)n2)cc1` (configuration not stated) is lower in “relative growth in counter assay” value: -1.29% for the first, -7.22% for the second.

Going from `Cc1cnc(Nc2cccc(C3CCN(C(=O)C4(NC(=O)C(C)(C)C)CCCCC4)CC3)n2)s1` to `CCCc1cnc(Nc2cccc(C3CCN(C(=O)C4CCCCC4)CC3)n2)s1`, the “relative growth in counter assay” value rises from -20.5% to -19.4%.

First: O=C(COc1cccc(Cl)c1)Nc1ccc(S(=O)(=O)Nc2ncccn2)cc1
Second: Cc1ccc(OCC(=O)Nc2ccc(S(=O)(=O)Nc3ncccn3)cc2)c(C)c1
The “relative growth in counter assay” value of the first is higher: -0.5% for the first, -1.23% for the second.

First: CC(C)Nc1nc(NC(C)C)nc(NS(=O)(=O)c2ccc(N)cc2)n1
Second: CCC(CC)C(=O)Nc1ccc(S(=O)(=O)Nc2nccc(C)n2)cc1
The “relative growth in counter assay” value of the first is lower: 3.97% for the first, 5.84% for the second.

Compared with `CCC(=O)Nc1cccc(C(=O)Nc2ccc(S(=O)(=O)Nc3ncccn3)cc2)c1`, `CC(C)C(=O)Nc1cccc(C(=O)Nc2ccc(S(=O)(=O)Nc3ncccn3)cc2)c1` is higher in “relative growth in counter assay” value: -3.85% for the first, 3.52% for the second.

Going from `CC(C)(C)c1ccccc1OCC(=O)Nc1ccc(S(=O)(=O)Nc2ncccn2)cc1` to `Cc1ccnc(NS(=O)(=O)c2ccc(NC(=O)CCc3ccccc3)cc2)n1`, the “relative growth in counter assay” value falls from -1.93% to -5.18%.

Compared with `CCN1C(=O)c2cccc3c(S(=O)(=O)Nc4ccccn4)ccc1c23`, `CN1C(=O)c2cccc3c(S(=O)(=O)Nc4ccccn4)ccc1c23` is higher in “relative growth in counter assay” value: -13.4% for the first, -9.38% for the second.

First: CC(=O)N1CCC(Cc2cccc(Nc3ncc(C)s3)n2)CC1
Second: CC(=O)N1CCC(c2cccc(Nc3nc(C)c(C)s3)n2)CC1
The “relative growth in counter assay” value of the first is lower: -18.5% for the first, -8.66% for the second.

Going from `Cc1cc(OCC(=O)N2CCCC2c2cccc(Nc3nccs3)n2)c2ccccc2n1` (configuration not stated) to `O=C(COc1ccc(F)cc1)N1CCCC1c1cccc(Nc2nccs2)n1` (configuration not stated), the “relative growth in counter assay” value rises from 2.35% to 14.9%.

Compared with `CCOC(=O)CCC(=O)Nc1ccc(S(=O)(=O)Nc2cc(OC)nc(OC)n2)cc1`, `COc1cc(NS(=O)(=O)c2ccc(NC(=S)NC(=O)/C=C/c3ccc(F)cc3)cc2)nc(OC)n1` is lower in “relative growth in counter assay” value: 2.87% for the first, -21.1% for the second.

Compared with `Cc1cnc(Nc2cccc(C3CCN(C(=O)C4C5C=CC(C5)C4C(=O)NCCO)CC3)n2)s1` (configuration not stated), `CCCc1cnc(Nc2cccc(C3CCN(C(=O)[C@H]4CCCC[C@H]4C(N)=O)CC3)n2)s1` is higher in “relative growth in counter assay” value: -24.7% for the first, -23.6% for the second.

Going from `Cc1cc(C)nc(NS(=O)(=O)c2ccc(NC(=O)COc3ccc(Cl)cc3)cc2)n1` to `Cc1ccc(C)c(OCC(=O)Nc2ccc(S(=O)(=O)Nc3nc(C)cc(C)n3)cc2)c1`, the “relative growth in counter assay” value falls from 1.7% to -5.89%.

First: Cc1cccc(NS(=O)(=O)c2ccc([N+](=O)[O-])cc2)n1
Second: COc1ccc(Cl)cc1C(=O)Nc1ccc(S(=O)(=O)Nc2nccc(C)n2)cc1
The “relative growth in counter assay” value of the first is higher: -2.71% for the first, -3.09% for the second.

Compared with `Cc1cnc(Nc2cccc(C3CCCN3C(=O)c3ccccc3)n2)s1` (configuration not stated), `Cc1cnc(C(=O)N2CCCC2c2cccc(Nc3nc(C)c(C)s3)n2)cn1` (configuration not stated) is lower in “relative growth in counter assay” value: 8.59% for the first, 4.08% for the second.

First: Cc1cnc(Nc2cccc(C3CN(C(=O)c4nccn4C)CCO3)n2)s1 (configuration not stated)
Second: COC(C)(C)C(=O)N1CCOC(c2cccc(Nc3ncc(C)s3)n2)C1 (configuration not stated)
The “relative growth in counter assay” value of the first is higher: 2.18% for the first, -13% for the second.

Compared with `Cc1nc(Nc2cccc(C3CCN(C(=O)Cc4ccc(F)cc4)CC3)n2)sc1C`, `Cc1csc(Nc2cccc(C3CCN(C(=O)CCn4ncc5ccccc54)CC3)n2)n1` is lower in “relative growth in counter assay” value: 4.31% for the first, 3.86% for the second.

Going from `CCCc1cnc(Nc2cccc(C3CCN(C(=O)c4n[nH]c5ccc(C)cc45)CC3)n2)s1` to `COc1ccc(NC(=O)CN2CCC(c3cccc(Nc4ncc(C)s4)n3)CC2)cc1`, the “relative growth in counter assay” value falls from 4.01% to -18.6%.

Compared with `NC(=O)CN1CCCC1c1cccc(Nc2nccs2)n1` (configuration not stated), `CC(=O)N1CCCCC1c1csc(Nc2ccccn2)n1` (configuration not stated) is higher in “relative growth in counter assay” value: -24.6% for the first, -1.54% for the second.

Compared with `Cc1cnc(Nc2cc(C3CCN(C(=O)C4CCCCC4)CC3)ccn2)s1`, `COc1ccc(CCC(=O)N2CCOC(c3cccc(Nc4ncc(C)s4)n3)C2)cc1` (configuration not stated) is higher in “relative growth in counter assay” value: -1.25% for the first, 9.66% for the second.

Compared with `COc1ccc(Cl)c2c1[nH]c1nc(SCC(=O)Nc3ccc(Cl)cc3)nnc12`, `O=C(CSc1nc2cc(Cl)ccc2[nH]1)Nc1ncccn1` is higher in “relative growth in counter assay” value: -1.12% for the first, 2.92% for the second.

First: CC(C)(C)C(=O)N1CCC(Cc2ccc(Nc3ncc(-c4ccc(F)cc4)s3)nc2)C1 (configuration not stated)
Second: Cc1cnc(Nc2cccc(C(C(=O)N(C)C)C3CCN(C(=O)[C@H](CC(C)C)NC(=O)OC(C)(C)C)CC3)n2)s1 (some centres not stated)
The “relative growth in counter assay” value of the first is higher: 1.54% for the first, -2.11% for the second.

Going from `O=C1CCC(N2C(=O)c3cc(F)c(N4CCN(CCC5CCNCC5)CC4)cc3C2=O)C(=O)N1` (configuration not stated) to `O=C1CCC(N2C(=O)c3ccc(NCCCn4cc(C(=O)O)cn4)cc3C2=O)C(=O)N1` (configuration not stated), the “relative growth in counter assay” value falls from 1.21% to -4%.
